In PubChem BioAssay AID1240 (Sanford-Burnham Center for Chemical Genomics, 2008):
Hit rate of the full screen: of about 50,000 compounds, about 800 (1.6%) showed an effect of 50% or more. The list shows a part of the results.

Each molecule was assayed against Bcl-2-like protein 10 (Homo sapiens) (UniProt Q9HD36) (assay: TR3 peptide-Bcl-B binding displacers, biochemical primary FP assay, phenotype converters (AID 1240;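 note: 0% = Bcl-B with tracer peptide and DMSO and 100% = tracer peptide lacking Bcl-B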)). Details: GST-Bcl-B / FITC-TR3 peptide fluorescence polarization; stronger effect = higher value; compound at 3.75 mg/L.
Chain of UniProt Q9HD36 (Q9HD36 whole entry, looked up): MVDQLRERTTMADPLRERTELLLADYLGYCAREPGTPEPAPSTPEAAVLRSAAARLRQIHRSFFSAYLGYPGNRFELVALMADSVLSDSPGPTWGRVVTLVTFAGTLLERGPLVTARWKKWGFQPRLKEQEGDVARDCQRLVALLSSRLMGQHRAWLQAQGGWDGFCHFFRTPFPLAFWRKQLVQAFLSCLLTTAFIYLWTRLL

| SMILES | displacement [%] |
| --- | --- |
| C=C1CCc2c([nH]c3ccc(OCC(C)C)cc23)C1=O | 6.5 |
| CC(=O)Nc1cc(-c2nc3cc(C)c(C)cc3o2)ccc1Cl | -19 |
| COc1ccc(Cl)cc1NC1=C(Cl)C(=O)N(c2ccc(Br)cc2)C1=O | -3.8 |
| CC1=NN(C(=O)c2cccnc2)C(C)(O)C1(C)C (centres undefined) | 11.6 |
| O=C(O)/C=C\C(=O)OCCCC(F)(F)C(F)(F)F | 9.5 |
| CC1=CC(c2ccccc2)=Nc2ccc(C)cc2N1 | 4.4 |
| CCOC(=O)c1c(C)oc2cc(Br)c(OCc3ccc([N+](=O)[O-])cc3)cc12 | 8.5 |
| Cc1ccc(NC(=O)CC(=O)NN)cc1 | 1.4 |
| O=C(N/N=C/c1ccccc1O)c1cc(=O)[nH]c2ccccc12 | -24.1 |
| COC(=O)c1ccc(C(=O)OC)c(NC(=O)/C=C/c2ccc(Cl)cc2)c1 | -6.4 |
| O=[N+]([O-])c1ccc(Cl)cc1Sc1nc2ccccc2[nH]1 | 8.9 |
| CC1=NN(c2ccc(Cl)c(Cl)c2)C(=O)/C1=C/c1ccco1 | 11.4 |
| Cc1cc(-c2ccc(N=Cc3ccc([N+](=O)[O-])s3)c(C)c2)ccc1N=Cc1ccc([N+](=O)[O-])s1 | -3.5 |
| COc1ccc2c(c1OC)C(=O)N1c3ccccc3N=C(c3ccc(Cl)cc3)CC21 (centres undefined) | -1.3 |
| O=C(NCCCN1CCOCC1)c1cc(Cl)ccc1Cl | -5.4 |
| O=[N+]([O-])c1cncc([N+](=O)[O-])c1Nc1ccc(Cl)cn1 | 2.1 |
| O=S(=O)(c1ccc2c(c1)Cc1cc(S(=O)(=O)N3CCOCC3)ccc1-2)N1CCOCC1 | 1.4 |
| Cc1cc(OCC(=O)Nc2ccccc2C(C)C)ccc1Cl | -6.2 |
| CCCCNC(=O)/C(=C/c1ccc(C)o1)NC(=O)c1ccccc1 | 13.1 |
| O=C(Nc1ccc2c(c1)OCO2)c1cnn2c1NC(c1ccco1)CC2C(F)(F)F (centres undefined) | 1.2 |
| CCOc1cc(/C=C2\C=C(c3ccc(Br)cc3)OC2=O)ccc1OC(C)=O | 12.6 |
| Cn1c(-c2cccs2)nc2c3ccccc3c3ccccc3c21 | 11.7 |
| CN(/N=C/c1ccc([N+](=O)[O-])cc1)C(=S)c1ccccc1 | -4.9 |

| SMILES | displacement [%] |
| --- | --- |
| CCC(CC)=NNC(=O)C(=O)Nc1ccc(F)cc1 | 9.1 |
| CC(C)(C)NCCOCCOc1cccc(Cl)c1Cl | -2 |
| CCOc1ccc(NC(=O)COc2ccccc2)cc1 | 3.2 |
| CC(C)=NNc1nc2ccccc2s1 | 13.3 |
| CC(C)(C)c1nnc(NC(=O)c2cccc([N+](=O)[O-])c2)s1 | 9.6 |
| COc1cc(C=C2C(=O)N(C)C(=O)N(C)C2=O)cc(Br)c1OCc1ccccc1 | 13.9 |
| CCN(CC)CCCNC(=S)Nc1cccc(Cl)c1 | -2.4 |
| CC1C(C(=O)N(C=O)c2cccc(Cl)c2)C2C=CC1C21CC1 (centres undefined) | -14.2 |
| FC(F)(F)c1ccccc1CN1CCN(Cc2ccco2)CC1 | -5.9 |
| CCOc1cc(/C=C2\C(=O)NC(=O)N(c3ccc(Cl)cc3)C2=O)cc(Cl)c1OCC(=O)O | -2.8 |
| N#C/C(=C/c1cccc(C(F)(F)F)c1)C(=O)Nc1cccc(Br)c1 | -9.1 |
| Cc1onc(-c2c(Cl)cccc2Cl)c1C(=O)N1CCC(Cc2ccccc2)CC1 | 6.9 |
| COC(=O)c1ccccc1NC(=O)c1cc2ccccc2o1 | -1.5 |
| O=C1CC(c2ccc([N+](=O)[O-])cc2)=NN1 | 8.6 |
| COc1cc(C(=O)Nc2nc3c(C)cccc3s2)cc(OC)c1OC | -1.5 |
| Cc1cc(C)n(CC(=O)n2c3ccccc3c3ccccc32)n1 | 12.7 |
| Cc1ccc(/C=N/N2CCN(Cc3ccc(Cl)cc3)CC2)o1 | -9.5 |
| COc1ccc(C(=O)Nc2sc(Cc3ccccc3)c(C)c2C(N)=O)cc1 | -16.5 |
| CCOC(=O)c1ccc(NC(=O)C(=O)NCc2ccc(OC)cc2)cc1 | -9 |
| CC(=O)Nc1ccc(N2C(=O)C3C4CC(=O)C(c5ccccc54)C3C2=O)cc1 (centres undefined) | 14.3 |
| CCOP(C)(=O)C(c1ccccc1)N(C)S(C)(=O)=O (centres undefined) | -6.7 |
| O/N=C1/C2C3CC4C2/C(=N\O)C2C1C3C42 (centres undefined) | 1.7 |
| COC(=O)C1=C(O)/C(=C\c2ccccc2C(F)(F)F)N=C1C | 9.4 |

| SMILES | displacement [%] |
| --- | --- |
| CC(/C=C(/C#N)C(=O)Nc1ccc(Cl)cc1)=C\c1ccccc1 | 0.9 |
| Cc1ccc(C2/C(=C(\O)c3ccccc3)C(=O)C(=O)N2CCN(C)C)cc1 (centres undefined) | -17.1 |
| COc1cc(C(=O)NC(NC(=S)Nc2ccc(Cl)cc2)C(Cl)(Cl)Cl)cc(OC)c1OC (centres undefined) | -19.8 |
| CC(C)CCNC(=O)C(=O)NCC1CCCO1 (centres undefined) | -0.6 |
| COC(=N)/C(C#N)=C/c1c(O)n(-c2c(Cl)cccc2Cl)c2ccccc12 | 5.4 |
| CC(C)C(C(=O)O)N1C(=O)/C(=C/c2ccc(O)cc2)SC1=S (centres undefined) | -37 |
| NC(=O)c1ccc(NC(=O)c2ccccc2[N+](=O)[O-])cc1 | 9.6 |
| COc1ccc(-c2nnc(-c3ccccc3)o2)cc1OC | 8 |
| CN(C)/C(=N/OC(=O)c1ccc([N+](=O)[O-])cc1)c1nonc1N | 11.6 |
| Cc1ccccc1OCC(=O)Nc1ccc(O)c(-c2nc3ccccc3o2)c1 | 13.8 |
| COc1cccc(OCCCOc2cccc3ccccc23)c1 | 2.3 |
| CC1=NN(C(=O)OC(C)(C)C)C(O)(c2ccc(Br)cc2)C1 (centres undefined) | -5.6 |
| Cc1cc(C)c(C(=O)/C(=C/c2ccco2)c2ccccc2)c(=O)[nH]1 | 8.9 |
| COc1ccc(C(=O)N2CCN(Cc3cccc(F)c3)CC2)cc1 | -6 |
| CCOC(=O)c1c(C)nc2n(CCN3CCOCC3)c3ccccc3n12 | -5.8 |
| CCOc1ccccc1N1C(=O)NC(=O)C(=Cc2ccc(OC)cc2)C1=O | 13.2 |
| COc1cccc(C2/C(=C(\O)c3ccc(Cl)cc3)C(=O)C(=O)N2CCCCCC(=O)O)c1 (centres undefined) | -4.6 |
| O=C(O)c1c[nH]c2cc3c(cc2c1=O)OCCO3 | -2.4 |
| COc1ccc(Cl)cc1N(CC(=O)NCC1CCCO1)S(=O)(=O)c1ccc(C)c([N+](=O)[O-])c1 (centres undefined) | -13.3 |
| COc1cc(/C=C2\N=C(c3ccccc3)OC2=O)cc(Br)c1OCc1c(C)no[n+]1[O-] | -1.1 |
| COc1ccc(CC(=O)Nc2ccc(S(=O)(=O)Nc3nc(C)cc(C)n3)cc2)cc1 | -3.3 |
| COCCCNC(=O)CN(c1cccc([N+](=O)[O-])c1)S(=O)(=O)c1ccccc1 | 11.1 |
| CCOc1cccc(-c2cc(C(=O)Nc3ccc4c(c3)OCCO4)c3ccccc3n2)c1 | -1.1 |
